# Measured values taken from PubChem BioAssay AID624417 (National Center for Advancing Translational Sciences (NCATS), 2012).
# Values joined by “and” are separate entries in the source; they are usually repeats but may differ in a detail not shown here. Equal entries are not always repeated. Out of some 410,000 compounds screened, about 6,400 (1.6%) were called active. The shares of active, inactive and inconclusive entries below differ from those in the screen. Calls come from the whole dose curve; as a rule, active = well fitted inhibition curve with a large enough effect; inconclusive = small, poorly fitted or top-dose-only effect; inactive = no such curve, though single readings can be large or run the other way. Potencies of inconclusive entries are doubtful fits and often do not repeat.
# Biological target: Glucagon-like peptide 1 receptor (Homo sapiens) (UniProt P43220)
# Sequence of UniProt P43220 (P43220 whole entry, looked up): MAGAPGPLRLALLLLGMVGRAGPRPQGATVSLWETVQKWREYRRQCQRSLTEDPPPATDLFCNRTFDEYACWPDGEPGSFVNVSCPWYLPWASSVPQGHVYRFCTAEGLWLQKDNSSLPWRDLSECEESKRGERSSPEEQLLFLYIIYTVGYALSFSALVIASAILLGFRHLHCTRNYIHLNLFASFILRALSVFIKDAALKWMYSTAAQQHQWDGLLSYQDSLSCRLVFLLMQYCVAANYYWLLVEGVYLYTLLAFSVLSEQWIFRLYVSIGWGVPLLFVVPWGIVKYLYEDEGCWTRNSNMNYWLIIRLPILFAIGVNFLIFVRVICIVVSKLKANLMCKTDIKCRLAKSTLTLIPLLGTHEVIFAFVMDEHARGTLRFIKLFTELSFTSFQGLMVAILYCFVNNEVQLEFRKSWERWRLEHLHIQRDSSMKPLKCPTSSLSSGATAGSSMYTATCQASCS
# Assay: qHTS of GLP-1 Receptor Inverse Agonists (Inhibition Mode); note: nearly all actives have a fitted effect of over 55% in size
# Settings: HEK293 GLP-1R CRE-luciferase, luminescence, 24 h, GLP-1R form is constitutively active; series mostly up to 38.3 µM
# How it was run: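 HEK293 cells stably co-expressing constitutively active GLP-1R and a cAMP-responsive luciferase reporter were seeded in DMEM with 10% Nu serum, given compounds after 12 h, and incubated 24 h at 37 deg C. Luminescence was then read.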
# Potency is the fitted concentration of half-maximal effect; tags give direction and shape of the fitted curve.
row,SMILES,Potency
1,COc1cccc(N2CCN(S(=O)(=O)c3cc4c(cc3C)N(C)CCO4)CC2)c1,"inconclusive: 12.6 µM [inhibitor, single point]"
2,COc1ccc(CNC(=O)Cc2c(C)c3cc4c(C)coc4c(C)c3oc2=O)cc1OC,inactive
3,O=C(c1ccc(F)cc1F)N1CCCc2ccccc21,"inconclusive: 12.6 µM [inhibitor, single point]"
4,CCOc1ccc(CN2C(=O)c3ccccc3C2C(=O)NCCc2ccc(OC)c(OC)c2)cc1 (configuration not stated),inactive
5,CC1(CCC(=O)N2CCCC(Nc3ccc(F)cc3)C2)CC1 (configuration not stated),"inconclusive: 11.2 µM [inhibitor, partial curve, poor fit]"
6,O=C(NNc1cccc(Cl)n1)c1ccc(Cl)cc1Cl,"inconclusive: 12.6 µM [inhibitor, single point]"
7,COc1ccccc1NC(=O)C1=C(C)Nc2ncnn2C1c1cccn1C (configuration not stated),inactive
8,CCN(CC)c1ccc(/C=N/NC(=S)NCc2ccco2)cc1,"inconclusive: 2 µM [inhibitor, full curve, poor fit]"
9,COc1ccc(NC2CCCN(C(=O)CCc3ccccc3F)C2)cc1 (configuration not stated),"inconclusive: 10 µM [inhibitor, partial curve, poor fit]"
10,CC(C)(C)n1nnnc1C(c1cccc(C#N)c1)N1CCCCCC1 (configuration not stated),"inconclusive: 28.2 µM [inhibitor, single point]"
11,COc1cccc(/C=N/Nc2nc(-c3cccnc3)nc3ccccc23)c1,"inconclusive: 11.2 µM [inhibitor, partial curve, poor fit]"
12,COc1ccc(NC(=O)c2nc[nH]c2C(=O)N[C@H](C)c2ccccc2)cc1,"inconclusive: 28.2 µM [inhibitor, single point]"
13,COc1ccc(/C=N/N2C(=O)CN(C(=O)c3ccccc3)C2c2ccc(OC)cc2)cc1 (configuration not stated),inactive
14,C=CCN(c1ccccc1)S(=O)(=O)c1cccc(C(=O)NCc2ccncc2)c1,"inconclusive: 22.4 µM [inhibitor, single point]"
15,O=C(O)c1ccc(Cl)cc1Nc1nc2cc(Cl)ccc2o1,"inconclusive: 12.6 µM [inhibitor, partial curve, poor fit]"
16,CC(=O)Nc1ccccc1N(CC(O)Cn1c2ccccc2c2ccccc21)S(=O)(=O)c1ccc(C)cc1 (configuration not stated),"inconclusive: 11.2 µM [inhibitor, single point]"
17,Cc1ccc(S(=O)(=O)N2[C@@H](c3ccc(Cl)cc3)C(C(=O)O)=CC[C@H]2c2ccc(Cl)cc2)cc1,"inconclusive: 7.08 µM [inhibitor, partial curve, poor fit]"
18,COc1cccc(-n2c(SCC(=O)Nc3nc4ccccc4s3)nc3ccccc3c2=O)c1,"inconclusive: 10 µM [inhibitor, partial curve, poor fit]"
19,O=C(c1ccc(Cl)c(Cl)c1)N1CCC(=O)N(C(COCc2ccc(Cl)cc2)Cc2ccccc2)CC1 (configuration not stated),active: 10 µM
20,CC(NC1CCCCC1)C(=O)NN=C(c1ccccc1)c1ccccc1 (configuration not stated),"inconclusive: 11.2 µM [inhibitor, partial curve, poor fit]"
21,CC(=O)c1ccc(N2CCN(C(=O)Nc3ccc(C(C)C)cc3)CC2)cc1,"inconclusive: 8.91 µM [inhibitor, partial curve, poor fit] and inconclusive: 20 µM [inhibitor, single point]"

row,SMILES,Potency
1,O=C(Nc1ccccc1)N(Cc1cccc(Cl)c1)c1ccccn1,"inconclusive: 22.4 µM [inhibitor, partial curve, poor fit]"
2,CC(C)c1ccc2occ(CC(=O)N(Cc3ccc(F)cc3)C3CCS(=O)(=O)C3)c2c1 (configuration not stated),"inconclusive: 8.91 µM [inhibitor, partial curve, poor fit]"
3,COc1ccc(CCNC(=O)c2ccc3c(c2)ncn3-c2ccc(C(C)C)cc2)cc1OC,"inconclusive: 20 µM [inhibitor, single point]"
4,COC(=O)c1ccc(C(=O)OC)c(NC(=O)CS(=O)(=O)Cc2ccccc2)c1,inactive
5,O=C(CSc1cc(Cl)ccc1Cl)NC1CC1,inactive
6,CC(=O)N1N=C(c2cccs2)CC1c1ccc(Br)cc1 (configuration not stated),"inconclusive: 31.6 µM [inhibitor, partial curve, poor fit]"
7,COc1ccc(Oc2ncc(CN3CCN(c4ccccc4)CC3)s2)cc1,"inconclusive: 28.2 µM [inhibitor, single point]"
8,Cc1cc(C(=O)CSc2nncn2C)c(C)n1-c1ccccc1,"inconclusive: 10 µM [inhibitor, partial curve, poor fit]"
9,C[C@H](NC(=O)c1ccccc1Cl)C(=O)OCCOc1cccc(Cl)c1,"inconclusive: 28.2 µM [inhibitor, single point]"
10,COc1ccc(NS(=O)(=O)c2ccc3[nH]c4c(c3c2)CCCCC4)cc1,"inconclusive: 12.6 µM [inhibitor, single point]"
11,Cc1cccc(C)c1NC(=O)C(NC(=O)c1ccccn1)c1ccc([N+](=O)[O-])cc1 (configuration not stated),inactive
12,CC1(C(=O)NS(=O)(=O)c2ccc(Cl)cc2)CCN1C(=O)c1ccccc1CCc1ccccc1 (configuration not stated),"inconclusive: 11.2 µM [inhibitor, partial curve, poor fit]"
13,CCOc1ccc(C(C(=O)NCC2CCCO2)N(C(=O)c2snc(C(N)=O)c2N)c2ccccc2F)cc1 (configuration not stated),"inconclusive: 8.91 µM [inhibitor, single point]"
14,Cc1cc2ncn(-c3ncnc4sc5c(c34)CCCC5)c2cc1C,inactive
15,COc1ccc(-c2cnc3c(NC(C)=O)cc(-c4ccccc4OC)cn23)cc1OC,"inconclusive: 28.2 µM [inhibitor, single point]"
16,CCS(=O)(=O)c1nc(S(=O)(=O)c2ccc(C)cc2)c(NC)s1,inactive
17,CCc1ccc(N(CC)c2ncnc3nc[nH]c23)cc1,"inconclusive: 8.91 µM [inhibitor, partial curve, poor fit]"
18,COc1ccc(C(N)c2csc(Nc3cc(Oc4ccccc4)ncn3)n2)cc1 (configuration not stated),"inconclusive: 28.2 µM [inhibitor, single point]"
19,CC(=O)C1=C(O)C(=O)N(c2ccc(Br)cc2)C1c1ccc(Br)cc1 (configuration not stated),"inconclusive: 28.2 µM [inhibitor, single point]"
20,COc1ccc(-c2coc(CCC(=O)N3CCN(c4cc(C)ccc4C)CC3)n2)cc1,inactive
21,Cc1ccc(S(=O)(=O)N2CCCCC2)cc1NCC(=O)Nc1ccc(Br)cc1F,"inconclusive: 7.08 µM [inhibitor, partial curve, poor fit]"

row,SMILES,Potency
1,CCc1cccc(NC(=O)NC2CCCCC2)c1,"inconclusive: 10 µM [inhibitor, partial curve, poor fit]"
2,CCCc1nc2cc(C)c(Br)c(C)n2c1Cc1ccc(OC)cc1C,"inconclusive: 10 µM [inhibitor, partial curve, poor fit]"
3,COc1ccc(C(=O)N2CCN(c3cccc(C)c3C)CC2)cc1S(=O)(=O)NC1CC1,"inconclusive: 28.2 µM [inhibitor, single point]"
4,CCCCOc1ccc(CSCCN)cc1Cl,"inconclusive: 7.08 µM [inhibitor, partial curve, poor fit]"
5,COc1ccccc1N1CCCSC1=Nc1ccccc1,"inconclusive: 28.2 µM [inhibitor, single point]"
6,Cc1ccc(NNC(=O)c2cc(C)on2)c(C)c1,"inconclusive: 11.2 µM [inhibitor, single point]"
7,O=C(Nc1ccc2snnc2c1)N1CCN(c2ccccc2)CC1,"inconclusive: 22.4 µM [inhibitor, single point]"
8,O=C(CCc1nnc(Cc2ccc3c(c2)OCO3)o1)NCCc1ccccc1Cl,"inconclusive: 11.2 µM [inhibitor, partial curve]"
9,Cc1ccc2c(c1)C(c1ccccc1)N(C(=O)CC(C)C)CC(=O)N2 (configuration not stated),"inconclusive: 10 µM [inhibitor, partial curve, poor fit]"
10,OC(CNCc1ccccc1F)COc1cccc2ccccc12 (configuration not stated),"inconclusive: 22.4 µM [inhibitor, partial curve, poor fit]"
11,CC1(C)CC(=O)/C(=N/Nc2ccc(Cl)cc2)CO1,"inconclusive: 2.82 µM [inhibitor, full curve]"
12,COc1ccc(-c2c(C)nn3c(N4CCCCCC4)cc(C)nc23)cc1OC,"inconclusive: 7.94 µM [inhibitor, partial curve, poor fit]"
13,O=C(NCC1CCN(Cc2ccccc2F)CC1)Nc1ccccc1F,"inconclusive: 28.2 µM [inhibitor, single point]"
14,COc1ccc(CCNC(=O)c2ccc3c(c2)N(Cc2ccccc2)CCS3)cc1OC,"inconclusive: 28.2 µM [inhibitor, single point] and inconclusive: 10 µM [inhibitor, partial curve, poor fit]"
15,Cc1ccc(C(=O)N2CCn3c4c(c5cc(C)ccc53)CCCC42)cc1 (configuration not stated),"inconclusive: 15.8 µM [inhibitor, single point]"
16,CCOC(=O)c1cc(C(=O)c2cc(Cl)ccc2O)coc1=N,inactive
17,CCCCNC(=O)CCC(=O)Nc1ccc2nc(N3CCCCC3)cc(C)c2c1,"inconclusive: 10 µM [inhibitor, single point]"
18,C=CCC(COCc1ccccc1)NS(=O)(=O)c1ccccc1Br (configuration not stated),"inconclusive: 28.2 µM [inhibitor, single point]"
19,O=C(NCc1cccnc1)c1ccccc1NS(=O)(=O)c1ccc(Br)cc1,"inconclusive: 28.2 µM [inhibitor, single point]"
20,O=C(CN(C(=O)Cn1nnc(-c2cccs2)n1)c1ccc2c(c1)OCCO2)NCc1ccccc1,"inconclusive: 10 µM [inhibitor, partial curve, poor fit]"
